Assay [1] deals with NRXN1β-myc/CFP (UniProt Q63373). Description: cell aggregation assay; as the cell aggregation assay, with an increasing amount of soluble ECD (0, 100 and 200 µL) added to the mixture of NRXN1β-expressing cells and DGCR2-expressing cells; only the binder purified.
Assay [2] deals with FLAG-tagged human DGCR2 (FLAG-hDGCR2) (human) (UniProt P98153). Put plainly: co-IP; HEK 293T cells co-transfected; lysates (IP buffer: 20 mM Tris pH 7.6, 50 mM NaCl, 1 mM EDTA, 1 mM NaF, 0.5% Nonidet P-40) immunoprecipitated with anti-FLAG antibody at 4 °C; blotted with anti-GFP and anti-FLAG.
For assay [3], the target named is NRXN1β-myc/CFP (UniProt Q63373). Description: cell aggregation assay; HEK 293T cells expressing one protein with RFP (red) mixed with cells expressing the other with GFP (green); 1 h, room temperature, gentle agitation, DMEM with 10% FBS, 50 mM Hepes-NaOH pH 7.4, 10 mM CaCl2, 10 mM MgCl2; aggregates of four or more cells with at least one red and one green cell counted.

Amino acid sequences for entries named in this document (tags omitted). A change or cut given only in a name is not applied to a line headed by its entry. Chains listed by the source or under a name are the forms on record and can include a tag or linker. Residues count along the entry.
UniProt Q63373, residues 47-468: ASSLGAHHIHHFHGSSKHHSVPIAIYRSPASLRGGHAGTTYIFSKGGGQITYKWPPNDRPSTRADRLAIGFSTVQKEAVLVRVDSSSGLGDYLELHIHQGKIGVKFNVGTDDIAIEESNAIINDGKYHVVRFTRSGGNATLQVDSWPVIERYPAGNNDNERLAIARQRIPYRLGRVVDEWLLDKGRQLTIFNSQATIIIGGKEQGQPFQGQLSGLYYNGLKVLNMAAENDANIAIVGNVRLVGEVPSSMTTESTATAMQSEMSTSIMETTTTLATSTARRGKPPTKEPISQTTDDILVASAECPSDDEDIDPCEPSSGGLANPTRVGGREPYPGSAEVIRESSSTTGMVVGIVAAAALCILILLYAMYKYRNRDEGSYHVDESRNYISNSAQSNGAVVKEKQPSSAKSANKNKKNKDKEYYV
UniProt P98153: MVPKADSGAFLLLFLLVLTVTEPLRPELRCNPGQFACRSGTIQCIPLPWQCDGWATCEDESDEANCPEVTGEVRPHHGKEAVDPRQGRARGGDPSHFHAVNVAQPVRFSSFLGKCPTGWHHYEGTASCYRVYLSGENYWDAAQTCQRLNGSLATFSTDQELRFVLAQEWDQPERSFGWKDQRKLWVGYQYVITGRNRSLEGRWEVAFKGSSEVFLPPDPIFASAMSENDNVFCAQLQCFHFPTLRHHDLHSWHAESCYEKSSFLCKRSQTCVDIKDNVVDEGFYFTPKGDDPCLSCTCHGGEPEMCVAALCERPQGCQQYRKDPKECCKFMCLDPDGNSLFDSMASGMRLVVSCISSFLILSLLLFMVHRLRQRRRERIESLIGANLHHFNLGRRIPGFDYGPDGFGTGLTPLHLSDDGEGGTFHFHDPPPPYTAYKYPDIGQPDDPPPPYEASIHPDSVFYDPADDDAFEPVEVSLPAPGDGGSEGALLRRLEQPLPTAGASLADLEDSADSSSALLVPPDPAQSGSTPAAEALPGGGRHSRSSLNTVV
FLAG-tagged human DGCR2 (FLAG-hDGCR2): residues 22-550 of P98153
UniProt Q62765, residues 46-843: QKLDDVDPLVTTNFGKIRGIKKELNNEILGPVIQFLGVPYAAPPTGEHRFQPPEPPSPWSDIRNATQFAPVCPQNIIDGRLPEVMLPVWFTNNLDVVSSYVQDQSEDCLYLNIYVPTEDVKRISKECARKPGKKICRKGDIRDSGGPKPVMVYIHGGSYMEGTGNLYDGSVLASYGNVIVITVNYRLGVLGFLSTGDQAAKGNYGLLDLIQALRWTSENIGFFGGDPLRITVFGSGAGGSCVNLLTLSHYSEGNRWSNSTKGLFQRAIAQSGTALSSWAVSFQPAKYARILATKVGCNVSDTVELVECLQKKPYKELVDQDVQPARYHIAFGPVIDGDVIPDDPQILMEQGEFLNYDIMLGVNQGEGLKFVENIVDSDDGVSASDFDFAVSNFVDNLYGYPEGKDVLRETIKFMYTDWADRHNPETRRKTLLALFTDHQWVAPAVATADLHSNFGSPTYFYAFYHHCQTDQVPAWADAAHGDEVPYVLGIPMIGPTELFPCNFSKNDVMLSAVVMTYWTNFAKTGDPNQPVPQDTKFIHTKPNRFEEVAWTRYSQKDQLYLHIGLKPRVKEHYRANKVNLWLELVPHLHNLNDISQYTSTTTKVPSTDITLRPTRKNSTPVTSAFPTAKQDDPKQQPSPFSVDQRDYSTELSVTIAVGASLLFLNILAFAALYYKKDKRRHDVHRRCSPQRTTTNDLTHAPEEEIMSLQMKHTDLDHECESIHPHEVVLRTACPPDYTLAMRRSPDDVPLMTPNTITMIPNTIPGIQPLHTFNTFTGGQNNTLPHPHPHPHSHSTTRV
UniProt Q07310, residues 28-1578: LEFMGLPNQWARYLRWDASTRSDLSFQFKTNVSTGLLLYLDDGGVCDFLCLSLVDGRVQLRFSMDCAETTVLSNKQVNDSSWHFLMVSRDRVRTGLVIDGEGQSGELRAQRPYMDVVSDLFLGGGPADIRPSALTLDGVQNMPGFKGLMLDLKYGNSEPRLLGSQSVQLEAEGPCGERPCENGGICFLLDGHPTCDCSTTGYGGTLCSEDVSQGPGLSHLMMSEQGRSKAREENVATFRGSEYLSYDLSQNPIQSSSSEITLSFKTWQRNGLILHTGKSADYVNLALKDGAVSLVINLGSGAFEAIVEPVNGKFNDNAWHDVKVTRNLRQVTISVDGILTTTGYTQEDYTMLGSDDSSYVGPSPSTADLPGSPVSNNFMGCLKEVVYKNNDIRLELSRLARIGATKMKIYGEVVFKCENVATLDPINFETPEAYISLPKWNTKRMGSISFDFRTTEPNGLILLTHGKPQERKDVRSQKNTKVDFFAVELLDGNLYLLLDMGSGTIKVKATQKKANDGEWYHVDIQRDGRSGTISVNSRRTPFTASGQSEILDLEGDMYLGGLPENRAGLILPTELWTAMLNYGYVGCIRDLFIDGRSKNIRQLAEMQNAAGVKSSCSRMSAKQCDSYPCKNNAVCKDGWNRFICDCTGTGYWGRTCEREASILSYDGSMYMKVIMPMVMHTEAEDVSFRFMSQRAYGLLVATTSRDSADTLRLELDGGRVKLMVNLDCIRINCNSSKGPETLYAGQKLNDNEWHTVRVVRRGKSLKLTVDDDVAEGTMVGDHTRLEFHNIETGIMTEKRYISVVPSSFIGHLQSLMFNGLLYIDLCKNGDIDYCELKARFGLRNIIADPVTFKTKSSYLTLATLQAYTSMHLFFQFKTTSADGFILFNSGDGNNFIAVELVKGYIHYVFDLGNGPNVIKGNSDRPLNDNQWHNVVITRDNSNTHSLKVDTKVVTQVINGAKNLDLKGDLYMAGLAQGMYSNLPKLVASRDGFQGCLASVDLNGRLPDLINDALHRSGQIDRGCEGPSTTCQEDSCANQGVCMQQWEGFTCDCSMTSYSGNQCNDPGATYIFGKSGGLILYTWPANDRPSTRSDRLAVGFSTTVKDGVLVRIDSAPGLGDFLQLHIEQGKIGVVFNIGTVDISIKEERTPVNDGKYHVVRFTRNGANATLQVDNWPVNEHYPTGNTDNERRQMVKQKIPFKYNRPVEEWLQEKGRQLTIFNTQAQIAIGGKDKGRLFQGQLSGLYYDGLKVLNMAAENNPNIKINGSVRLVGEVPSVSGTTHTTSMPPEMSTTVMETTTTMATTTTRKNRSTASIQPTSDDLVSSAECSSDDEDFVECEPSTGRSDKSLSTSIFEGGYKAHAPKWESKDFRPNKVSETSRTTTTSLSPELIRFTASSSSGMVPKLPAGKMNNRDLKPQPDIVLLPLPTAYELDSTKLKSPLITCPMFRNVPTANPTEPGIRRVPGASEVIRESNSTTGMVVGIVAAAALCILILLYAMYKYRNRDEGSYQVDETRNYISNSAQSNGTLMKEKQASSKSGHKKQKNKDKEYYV

Assay [4] shares this target. Description: co-IP; HEK 293T cells co-transfected with NRXN1β-myc/CFP, NLGN1-YFP and FLAG-hDGCR2 (also in increasing amount), ∆ECD, ∆ICD or Mock; lysates immunoprecipitated with anti-myc antibody and Protein A/G agarose; blotted with anti-NLGN1, anti-myc and anti-FLAG.
For assay [5], the target named is FLAG-tagged human DGCR2 (FLAG-hDGCR2) (human) (UniProt P98153). Put plainly: co-IP; intact cells IP: anti-FLAG antibody added to co-transfected HEK 293T cells before lysis (2-4 h, 4 °C) to bind cell surface FLAG-hDGCR2; unbound antibody washed off, cells lysed in IP buffer, Protein A/G beads.
The target is the same in assay [6]. Description: cell aggregation assay; HEK 293T cells expressing one protein with RFP (red) mixed with cells expressing the other with GFP (green); 1 h, room temperature, gentle agitation, DMEM with 10% FBS, 50 mM Hepes-NaOH pH 7.4, 10 mM CaCl2, 10 mM MgCl2; aggregates of four or more cells with at least one red and one green cell counted.

No constants are given. Whether binding was seen depends on the method and setting. For some of these results: Binding seen in cells or lysates may run through a third protein. Some entries that bind do so weakly or less than the wild type.

On to “FLAG-hDGCR2-ECD-Fc (secretable ECD) (from UniProt P98153 22-346) (Fc fusion)”, for which the binding result in the assay with NRXN1β-myc/CFP [1] is on record as “binds”.

Turning to “Neurolign (NLGN) 1-YFP (from UniProt Q62765 46-843)”, the binding entry is given as “no binding” in assay [2], “binds” with NRXN1β-myc/CFP [3] and “binds” in the assay with NRXN1β-myc/CFP [4].

Take “Neurolign (NLGN) 4-YFP (from UniProt Q8N0W4 42-816)”: the binding entry in assay [2] was “no binding”.

In the case of “NRXN3α-CFP (from UniProt Q07310 28-1578)”, the binding result in assay [5] is reported as “no binding”.

For the substance “NRXN1β-myc/CFP (from UniProt Q63373 47-468)”, in assay [6], the binding result is listed as “binds”.

For the origin of these results see paper PMC10362570.
